Source: PubChem BioAssay AID488969 (Vanderbilt High Throughput Screening Facility, 2010)
In all, about 110,000 compounds were measured (“z-score”: median about -0.1, highest 2% from about 2 on). The list shows a part of the results. The source made the active and inactive calls.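 How the source made its calls: active means z-score in the third read window above 3 or below -3; inactive means the rest.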

These compounds were tested against Metabotropic glutamate receptor 8 (Rattus norvegicus) (UniProt P70579) (assay: rat mGluR8 modulators via GIRK flux, primary screen, cell-based, thallium flux, HTS (AID 488969)). Settings: HEK293 rat mGluR8, GIRK (G protein-gated inwardly rectifying potassium channel) thallium flux, FluoZin2; at 10 µM; stronger effect = higher value; submaximal glutamate (EC20) added with thallium.
Chain of UniProt P70579 (P70579 whole entry, looked up): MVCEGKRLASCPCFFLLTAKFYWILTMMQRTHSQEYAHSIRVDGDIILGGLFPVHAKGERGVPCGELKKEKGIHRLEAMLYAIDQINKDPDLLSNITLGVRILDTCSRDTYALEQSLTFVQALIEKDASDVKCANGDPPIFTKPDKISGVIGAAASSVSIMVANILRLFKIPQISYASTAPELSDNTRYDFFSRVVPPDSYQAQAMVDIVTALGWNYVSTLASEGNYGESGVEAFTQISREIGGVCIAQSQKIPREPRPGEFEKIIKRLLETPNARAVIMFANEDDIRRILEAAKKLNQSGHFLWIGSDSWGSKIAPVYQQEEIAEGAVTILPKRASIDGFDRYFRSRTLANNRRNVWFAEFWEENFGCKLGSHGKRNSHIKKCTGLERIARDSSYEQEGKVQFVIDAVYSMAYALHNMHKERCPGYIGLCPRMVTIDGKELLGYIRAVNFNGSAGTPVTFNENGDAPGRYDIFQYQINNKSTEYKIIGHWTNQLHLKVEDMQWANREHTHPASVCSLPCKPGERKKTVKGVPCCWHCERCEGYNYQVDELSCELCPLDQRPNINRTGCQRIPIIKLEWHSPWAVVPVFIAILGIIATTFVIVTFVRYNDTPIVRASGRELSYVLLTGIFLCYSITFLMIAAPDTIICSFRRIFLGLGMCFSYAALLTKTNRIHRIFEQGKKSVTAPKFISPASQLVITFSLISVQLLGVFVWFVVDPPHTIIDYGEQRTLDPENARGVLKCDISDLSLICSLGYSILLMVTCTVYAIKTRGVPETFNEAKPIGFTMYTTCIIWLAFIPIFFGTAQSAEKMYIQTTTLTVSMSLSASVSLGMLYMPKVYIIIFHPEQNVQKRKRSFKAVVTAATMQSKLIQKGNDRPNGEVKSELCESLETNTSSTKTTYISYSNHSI
In the case of `Cn1nc(-c2ccc(N3CCOCC3)c(NC(=O)c3ccccc3)c2)c2ccccc2c1=O`, the z-score is reported as active: -5.83.
In the case of `COc1ccc2c(c1)CCc1c(C(=O)N3CCCCCC3)noc1-2`, the z-score is reported as 0.435.
`CCOC(=O)c1sc(=S)n(CC)c1NC(=O)C1CC1` gave a z-score of 1.75.
`CCN(CC)CCNC(C(=O)Nc1cc(C(F)(F)F)ccc1Cl)c1ccccc1` (configuration not stated) was tested, and the z-score was -0.037.
With `Cn1c(SCC(=O)Nc2ccc(NC(=O)c3cccs3)cc2)nnc1-c1ccncc1` the z-score was -0.972.
For `Cc1cc2c(cc1C)CSC(c1c(O)ccc3ccccc13)SC2`, the z-score was -0.228.
In the case of `COC(=O)c1cccnc1-n1c(=O)c2cccnc2n(Cc2ccc(Cl)cc2)c1=O`, the z-score is reported as 1.63.
In the case of `CC(C)CNC(=O)COC(=O)c1cc(S(=O)(=O)N2CCCCC2)ccc1N1CCOCC1`, the z-score is reported as 0.557.
Compound `CN(C)CCNc1oc(/C=C/c2ccccc2)nc1C#N` has a z-score of 0.0165.
`COc1ccc(Oc2coc3c(CN4CCOCC4)c(O)ccc3c2=O)cc1` gave a z-score of -0.0814.
`CC1CC(C)(C)CC2(C1)NC(=S)N(c1ccccc1)N2` (configuration not stated) was tested, and the z-score was -0.119.
`O=C(NCc1ccco1)C1CCCN(S(=O)(=O)Cc2ccccc2)C1` (configuration not stated) was tested, and the z-score was -0.533.
In the case of `Fc1ccc(CNC(=S)Nc2ccc(Cl)cc2Cl)cc1`, the z-score is reported as 0.134.
`Cc1ccc(C(=O)COc2nc(C)cc(C)c2C#N)cc1` gave a z-score of -0.374.
For `CCNC(=S)NNC(=O)C(c1ccccc1)c1ccccc1`, the z-score was -0.324.
For `COc1cc(C(=O)N(Cc2cccc(Cl)c2)C2CCS(=O)(=O)C2)cc(OC)c1OC` (configuration not stated), the z-score was -0.352.
Work on `O=C1Nc2ccccc2N(O)N1c1ccc(S(=O)(=O)N2CCOCC2)cc1` yielded a z-score of 0.342.
`CCOc1cc(C=O)ccc1OCCSc1ccc(C)cc1` gave a z-score of -0.295.
`CCOc1ccc2[nH]c(=S)[nH]c2c1` was tested, and the z-score was 0.0798.
With `O=C(NCCCN1CCOCC1)c1ccc(-n2nc(C(F)(F)F)cc2-c2cccs2)cc1` the z-score was -0.136.
`CCSc1nc(O)c(CC)c(=O)n1C(C)CC` (configuration not stated) was tested, and the z-score was -0.314.
`Cc1nc(C)c(CCNC(=O)c2ccc(C(F)(F)F)cc2)s1` was tested, and the z-score was -0.441.
`COc1ccccc1NC(=O)CN(c1ccccc1F)S(C)(=O)=O` gave a z-score of -0.128.
For `COC(=O)c1ccccc1NC(=O)Oc1ccc(F)cc1`, the z-score was -0.162.
Work on `CCN(CC)S(=O)(=O)c1ccc(N2CCOCC2)c(NS(=O)(=O)c2ccc(C)c(C)c2)c1` yielded a z-score of -0.317.
For `Cc1cc(C)cc(OC(C)c2ccnc3nc(/N=C/N(C)C)nn23)c1` (configuration not stated), the z-score was -0.747.
Compound `COC(=O)C(C)(C(=O)OC)c1ccc([N+](=O)[O-])cn1` has a z-score of -0.0772.
For `O=C1/C(=C/c2cccs2)Cc2ccccc21`, the z-score was -0.366.
For `COC(=O)c1ccccc1NC(=O)c1cc(-c2ccc(OC)c(OC)c2)on1`, the z-score was 0.592.
`Oc1c(C(Nc2cccc(C(F)(F)F)c2)c2cccnc2)ccc2cccnc12` (configuration not stated) gave a z-score of -0.0191.
Work on `Cc1ccc(C(=O)OC2CCS(=O)(=O)c3sccc32)cc1` (configuration not stated) yielded a z-score of -0.0101.
`COCCCN1C(=O)C(=O)/C(=C(/O)c2ccc(OC)cc2)C1c1ccc(O)c(OC)c1` (configuration not stated) gave a z-score of -0.18.
In the case of `COc1cccc(N2CCN(CC(=O)C34CC5CC(CC(C5)C3)C4)CC2)c1`, the z-score is reported as 0.0526.
`CCOC(=O)c1ccccc1NC(=O)c1cccc(F)c1` gave a z-score of 0.0409.
Compound `N#Cc1nc(Cc2cccc3ccccc23)oc1NCC1CCCO1` (configuration not stated) has a z-score of 0.423.
Compound `O=C(CSc1nnnn1-c1ccccc1)NCc1cccs1` has a z-score of 0.182.
Compound `Cc1ccc(S(=O)(=O)N(CC(=O)Nc2ccccc2-c2ccccc2)c2ccc(C)cc2C)cc1` has a z-score of 0.238.
In the case of `Cc1c(/C(O)=C2\C(=O)C(=O)N(CCN(C)C)C2c2cccnc2)cnn1-c1ccccc1` (configuration not stated), the z-score is reported as 0.102.
With `COC(=O)c1ccccc1S(=O)(=O)N1CCC(c2nc3ccccc3o2)CC1` the z-score was -0.675.
With `COCc1[nH][nH]c(=O)c1C=Nc1ccc(Cl)cc1` the z-score was -0.108.
Compound `C[C@H](NS(=O)(=O)c1ccccc1F)C(=O)OCC(=O)N1CCc2ccccc21` has a z-score of -0.253.
`Nc1nc(SCc2nc3scc(-c4cccs4)c3c(=O)[nH]2)n[nH]1` gave a z-score of -0.437.
For `CCOc1ccccc1C1NC(=O)NC(C)=C1C(=O)OC1CCCCC1` (configuration not stated), the z-score was -0.569.
With `CCc1ccc(-c2nc(CN3CCCC(C(=O)NCCc4ccc(OC)c(OC)c4)C3)c(C)o2)cc1` (configuration not stated) the z-score was 2.2.
Work on `CCOc1ccccc1C(=O)OCC(=O)Nc1ncc(C(F)(F)F)cc1Cl` yielded a z-score of -0.0395.
In the case of `CCOC(=O)c1cn(-c2ccc(F)c(F)c2)c2c(F)c(F)c(F)c(F)c2c1=O`, the z-score is reported as 0.827.
Compound `COc1ccc(S(=O)(=O)Nc2cc(C(=O)NC3CCCCCC3)ccc2N2CCOCC2)cc1` has a z-score of -0.0198.
`Cc1ccc(C)c(Cn2c(=O)n(-c3ccc(CC(=O)NCc4ccco4)cc3)c(=O)c3sccc32)c1` showed a z-score of -0.162.
Work on `Cc1cc(NC(=O)Nc2cccc(C(F)(F)F)c2)no1` yielded a z-score of -0.232.
`COc1ccccc1-c1c(C#N)c(SCC(=O)N2CCCC2)nc(C)c1C(N)=O` gave a z-score of 0.169.
With `c1cncc(C(c2nnnn2C2CCCCC2)N2CCN3CCCC3C2)c1` (configuration not stated) the z-score was -0.106.
Work on `CN(c1cccc(Cl)c1)S(=O)(=O)c1cccc(C(=O)NC2=NCCS2)c1` yielded a z-score of -0.0496.
`COc1cccc(CNC(=O)C2CCN(Cc3cnn(-c4ccccc4)c3-n3cccc3)CC2)c1` was tested, and the z-score was 2.66.
In the case of `CCOc1ccc(S(=O)(=O)Nc2ccc(S(=O)(=O)N3CCCC3)cc2)cc1`, the z-score is reported as -0.00586.
`O=C(N/N=C\c1ccccn1)C1COc2cc3ccccc3cc2O1` (configuration not stated) gave a z-score of 1.5.
Work on `CC(=O)N1N=C(c2ccccc2O)OC1(C)CC(=O)Nc1ccccc1` (configuration not stated) yielded a z-score of -0.135.
With `CS(=O)(=O)c1nc(-c2ccco2)cc(C(F)(F)F)n1` the z-score was -0.814.
`CCCC(=O)N1CCN(c2ccc(NC(=O)c3ccc(OCC)c([N+](=O)[O-])c3)cc2)CC1` showed a z-score of 0.047.
For `N/C(=N\c1nc2c(c(=O)[nH]1)CCC2)Nc1cccc(Cl)c1`, the z-score was -0.145.
In the case of `CCOCCCNC(=O)c1cc(Sc2ccc(F)cc2)nc2ccccc12`, the z-score is reported as -0.917.
`CC(=O)Nc1ccc2c(c1)OCCO2` showed a z-score of 0.347.
In the case of `O=C(OCCN1CCCC1=O)c1cncc(Br)c1`, the z-score is reported as 0.0878.
In the case of `NC(=O)c1sc2nc(N3CCOCC3)c3c(c2c1N)CCCC3`, the z-score is reported as 0.0122.
With `O=C(NC1CCCC1)C(c1ccncc1)N(Cc1cccs1)C(=O)c1csnn1` (configuration not stated) the z-score was 0.532.
Compound `Cc1ccc(S(=O)(=O)NCC(=O)OCC(=O)Nc2ncc(Cl)cc2Cl)cc1` has a z-score of -1.17.
`O=C(Nc1ccccc1[N+](=O)[O-])C1=C(O)CCn2c1nc1ccccc12` gave a z-score of -0.237.
`O=C(/C=C/c1ccccc1)NC(=S)Nc1ccc(CN2CCOCC2)cc1` gave a z-score of 0.0788.
`Cc1ccc(C(=O)O/N=C2\CC3CCC2(C)C3(C)C)cc1` (configuration not stated) showed a z-score of 0.262.
`COc1ccc(C(C#N)Nc2ccccc2C)cc1` (configuration not stated) showed a z-score of -0.219.
Work on `CCCN1C(=O)C(O)(C/C(C)=N/O)c2ccccc21` (configuration not stated) yielded a z-score of 0.162.
`CCc1nc(-c2ccc(C)nc2OC)no1` gave a z-score of 0.176.
For `O=C(CSc1ncn[nH]1)Nc1ccc2c(c1)CCC2`, the z-score was -0.0751.
`CC(=O)c1c(C)[nH]c(C(=O)Nc2cccnc2)c1C` gave a z-score of 0.0832.
`COc1ccc(NC(=O)Cn2c(=O)sc3ccccc32)cc1` showed a z-score of -0.492.
`O=C(CC(c1ccccc1)c1ccccc1)NCCO` gave a z-score of -1.11.
Compound `COc1ccc(/C=C/C(=O)c2sc(-c3ccc(Cl)cc3)nc2C)cc1` has a z-score of -0.978.
With `C=CCN1C(=O)C(CCCC)NC1=S` (configuration not stated) the z-score was -0.0406.
For `Fc1ccc(-c2ccnc3nc(N4CCN(c5ccccc5)CC4)nn23)cc1`, the z-score was -0.597.
Compound `CC(C)Cc1nc2oc3c(=O)[nH]cnc3c2c2c1CCC2` has a z-score of 0.0516.
With `C=CCNc1nc(N2CCOCC2)c(C#N)c2c1CN(C)CC2` the z-score was -0.148.
With `CC(C)C(=O)NCCn1ccc2ccccc21` the z-score was 0.586.
Compound `COc1cc(C2C(C(=O)c3cccs3)=C(O)C(=O)N2c2cc(C)on2)ccc1O` (configuration not stated) has a z-score of -0.347.
With `CCN(CC)C(=O)C1=C(C)Nc2nnnn2C1c1cccnc1` (configuration not stated) the z-score was -0.00299.
In the case of `Cc1ccc(-n2c(O)c(/C=N/NC(=O)C3COc4ccccc4O3)c3ccccc3c2=O)cc1` (configuration not stated), the z-score is reported as -0.326.
`Cc1ccc(C(=O)Nc2cc(=O)n(C)c(=O)n2C)o1` gave a z-score of -0.559.
In the case of `Fc1ccccc1CSc1nnc(-c2cccs2)o1`, the z-score is reported as 0.949.
`CC(=O)c1cc2c(C)c(C(=O)c3ccccc3)oc2cc1O` was tested, and the z-score was 0.335.
`Cc1cccc(NC(=O)Nc2ccc(C)cc2Br)c1` showed a z-score of 0.0899.
With `CCSC1=N/C(=C\c2ccc(OC)cc2)C(=O)N1` the z-score was -0.286.
Compound `CCc1ccc(NC(=O)c2c(Cl)nc(C)c(Cl)c2C)cc1` has a z-score of 0.414.
For `Cc1cccc(NC(=O)C2CC(=O)n3cnnc3S2)c1` (configuration not stated), the z-score was -0.956.
Compound `CCc1ccc(OCC(=O)NNC(=O)Cc2cccs2)cc1` has a z-score of 0.638.
In the case of `N#CC1=C(SCC(=O)Nc2cccc3cccnc23)NC(=O)C(C#N)C12CCCCC2` (configuration not stated), the z-score is reported as -2.36.
Compound `NC(=O)NC(=O)CSc1cccc(C(F)(F)F)c1` has a z-score of -0.362.
For `Cc1ccc(-c2cc(C(=O)NCC3CCCO3)no2)cc1` (configuration not stated), the z-score was -0.137.
`CCN(CC)CCN1C(=O)c2ccccc2NC1c1ccc(F)cc1` (configuration not stated) was tested, and the z-score was -0.365.
In the case of `N#CC1C(C#N)N2CCCN2C1c1ccc(Cl)cc1` (configuration not stated), the z-score is reported as 0.412.
For `C/C(=N/NC(=O)CNC(=O)COc1ccccc1)c1ccco1`, the z-score was 0.0764.
`Cn1cccc1Cc1nnc(SCC(=O)N2CCCC2)n1CCc1ccccc1` was tested, and the z-score was 0.601.
In the case of `CC(=O)Oc1ccccc1C1OC(=O)c2ccccc2N1C(C)=O` (configuration not stated), the z-score is reported as -0.00311.
`Cc1cccc(NC(=S)NNC(=S)NCc2ccccc2)c1` gave a z-score of -0.364.
`COc1ccc(/C=N\NC(=O)C2=NNC(=O)C2C)cc1` (configuration not stated) gave a z-score of -0.0658.
With `Cc1c(Cc2c(Cl)cccc2Cl)c(=O)ccn1C(C)c1ccccc1` (configuration not stated) the z-score was -0.144.
With `CN1CC2([N+](=O)[O-])CC=C(OCCO)C([N+](=O)[O-])(C1)C2` (configuration not stated) the z-score was -0.317.
In the case of `CN1/C(=C/C(=O)c2cccs2)Sc2ccccc21`, the z-score is reported as -0.204.
For `CC(C)Cc1nc2n[nH]c(N)c2c2c1CCC2`, the z-score was 0.342.
Compound `CCOc1ccc(NS(=O)(=O)c2ccc3[nH]c(=O)oc3c2)cc1` has a z-score of -0.219.
`COC(=O)c1cc(NC(=O)c2c(Cl)cnn2C)cc(C(=O)OC)c1` showed a z-score of -0.191.
`CS(=O)(=O)c1ccc2nc(NC3(C(F)(F)F)N=C4SCCN4C3=O)sc2c1` (configuration not stated) gave a z-score of 0.151.
Compound `N/C(=N\OC(=O)CCC1CCCC1)c1cccc([N+](=O)[O-])c1` has a z-score of -0.162.
With `COc1cc(C(=O)O/N=C(\N)c2ccc([N+](=O)[O-])cc2)cc(OC)c1OC` the z-score was -0.417.
`O=C1CCCC2=C1C1(CCCCC1)N=C(Nc1nc3ccccc3s1)N2` showed a z-score of -0.0713.
